Assay results reported in the supplement of paper PMC3334620.
Whole data set: some 33,000 sequences, median “E-score (-0.5 to 0.5)” near -0.016, cut for the highest 2% near 0.32. The list shows a part of the results.

Each sequence was assayed against T1, Stp1 (UniProt B3LFK1) (assay: PBM E-score (8-mer binding enrichment) (E-score (-0.5 to 0.5)); higher = stronger / more preferred TF binding; most listed sequences are background and not binding sites). Conditions: protein concentration: 200 nM; construct: GST-full length.
T1 sequence: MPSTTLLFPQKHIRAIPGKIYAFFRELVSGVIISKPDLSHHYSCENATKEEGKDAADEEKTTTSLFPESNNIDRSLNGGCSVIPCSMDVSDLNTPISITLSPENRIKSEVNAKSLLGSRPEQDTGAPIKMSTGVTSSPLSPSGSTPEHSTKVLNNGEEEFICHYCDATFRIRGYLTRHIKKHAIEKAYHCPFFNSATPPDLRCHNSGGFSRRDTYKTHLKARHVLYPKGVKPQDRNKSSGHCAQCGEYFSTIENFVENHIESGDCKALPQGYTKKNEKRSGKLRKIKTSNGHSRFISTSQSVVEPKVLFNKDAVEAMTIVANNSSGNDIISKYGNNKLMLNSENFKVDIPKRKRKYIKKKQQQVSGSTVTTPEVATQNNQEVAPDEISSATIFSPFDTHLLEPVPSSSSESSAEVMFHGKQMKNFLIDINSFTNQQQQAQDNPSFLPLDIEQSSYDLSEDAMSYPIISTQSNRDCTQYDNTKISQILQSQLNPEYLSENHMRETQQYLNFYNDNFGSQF
Method in brief: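 Detection of bound protein used fluorescent anti-GST, with scans normalised by masliner. The proteins were GST-tagged yeast transcription factors applied at about 100-200 nM to universal all-10-mer Agilent arrays made double-stranded by primer extension. Each ungapped eight-base word, pooled with its reverse complement, was scored with an E-score from the Universal PBM Analysis Suite.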

Sequence	PBM E-score
AATCCGTG	0.219
CAGGAGAA	-0.00625
CGGCGGCC	0.214
TACTAACA	0.0927
CATTGTGC	0.148
CAGGGCAG	-0.114
AGTATTCG	0.0476
CTTATTAA	0.167
CAAAGTTC	-0.154
AATCGGCT	0.228
GCCCATCC	-0.0259
ACTCAATC	-0.0413
TAGTTAGA	0.0365
AGTTGCAC	-0.0978
ATGTTAGC	-0.015
AGGTCCCC	-0.13
AGTCGTGC	-0.085
CAGGTGCG	-0.0411
ACTGGCTC	-0.267
AATCAACG	0.107
CCATGAAC	-0.0517
AGAACGGC	0.387
TATGGACA	0.0788
ACGTTCGC	-0.134
CACTTCGA	0.151

Sequence	PBM E-score
CTACAGGC	-0.136
ATAGCGTC	-0.14
GCCACGCC	0.267
GTCGAAAC	-0.0355
ATGAACGC	0.116
GGTTGTAC	-0.0855
CAAAAATA	0.251
CCACATCC	-0.0172
CAGACTGG	-0.183
CTATCCGA	-0.0258
GCCTAGAA	-0.112
TCCTATAA	-0.00959
CAATAATG	0.0123
GAAGACAA	0.171
TGAAGAAA	0.168
GATTCAGC	-0.0357
GCGAGGGA	-0.178
ACATTTCC	0.0308
CCAAATCC	-0.187
ACATGTTG	0.118
CGAGCTCC	-0.0738
GCATGAGA	0.151
ACATTGAC	-0.03
CCAACTCA	-0.0311
GTTCCTAA	0.0398

Sequence	PBM E-score
ACTACTGC	-0.226
CCTCACAC	-0.142
CAAAGGTA	-0.0205
TGTTCCAA	0.0126
GGCACAAC	0.255
ACTTTGGC	-0.0956
ACTATCGA	-0.16
ATAAAACG	0.223
GCGTAAAC	0.261
GAACCGTA	0.0246
CCGCAGCG	0.0818
CTCGCTGA	-0.0828
CAAACGGG	0.175
AGGGGTGA	-0.353
AATGTCCC	-0.227
AGACCGGC	-0.0186
AAGCTGGC	-0.111
CAGGGAAA	-0.0756
GCATTTCA	0.0927
AATCCGAA	-0.0725
ATCCGTGG	-0.00618
GATATGGA	0.168
AGGTTCGG	-0.184
ATACATTA	0.133
AGGCGACA	0.197

Sequence	PBM E-score
AGAACCGA	-0.0518
GCGACCAC	0.0191
AGTATACC	-0.0617
GACTAGTC	-0.32
CTGCCCTC	-0.245
CAGAACCC	-0.0622
GTACCCAA	-0.0615
CACATCTA	0.198
CCCAGTGC	-0.0486
GATCGAAC	0.0147
GCGGTTAC	0.0829
CAAGTTTA	0.046
ACGAATTG	0.0345
AAGCTCTG	-0.238
GTTTAGTA	0.0839
CTAAGCAA	-0.0266
AGCTCTCA	-0.168
CGAACGAA	0.0262
GAGCTTCA	-0.0352
AGTTTCTG	0.128
GTTTTGCA	0.0738
AATCTCTC	0.0375
ACGTACCA	0.0308
CGGATTCA	-0.132
GCATCGGA	0.114

Sequence	PBM E-score
GGCCTTGA	-0.221
TCTTTCAA	-0.145
CTTTGACC	-0.0226
AACAGCAC	0.205
AATCCGAG	0.0181
AGGAATGC	0.015
GCTGAGGA	-0.24
ACGGTTAG	-0.349
TAACAGCA	0.174
ATACATAC	-0.0362
ACCCTAGC	-0.288
ATAGCAGC	-0.187
AAATAAGT	0.107
AGTCTTTG	-0.011
GTAGTGGA	0.0346
CCCTCCTC	-0.364
ACCACTCG	0.17
ATTTGCCC	0.109
ACTGGTAC	-0.0761
CTCATTTC	0.0453
ATATGTGC	0.193
CGTGAACA	0.121
AATTAGGC	0.146
ATACCGAG	-0.0782
CGTCATGA	-0.0466

Sequence	PBM E-score
GGCCGTAC	0.424
CATAGAGG	-0.0241
AGCATTAT	0.0803
GCGGGTAA	-0.0218
ACGAGGTC	-0.144
ACCCGAAA	-0.149
GGGTATTA	-0.148
ATATATTC	0.226
ACAAACAA	0.0634
CTGCATCC	0.0297
CCTTTCTC	-0.144
CGTACCGA	0.00804
CAGTCATC	-0.254
CCACCTGC	-0.021
ATAGTCTA	-0.243
TCCGTCCA	-0.122
CGTAATAG	0.0375
TAGGTCAA	-0.0431
GTCCTTAA	-0.0475
AATCCGGC	-0.171
CCCCCATC	-0.243
CCTAATTA	-0.0644
CAGCCACG	0.12
ACAAGGCA	0.315
GTACACAC	0.0557

Sequence	PBM E-score
ACTACCTG	-0.0517
GAGTGGCA	0.166
AGTCTCAA	-0.219
ACTACCAC	-0.139
CCTGAGCA	-0.0592
AGAAATCC	0.0493
AGGGATTA	-0.0874
CGAAGAAG	0.0283
GAACGGGA	-0.0828
ACCCAAGC	-0.183
AATCCGTC	0.0578
AGGATACA	-0.0552
GTGGCGGA	-0.0941
CCTTGGAA	-0.0333
GACAAGGA	0.0206
CTAGTGCC	0.301
AAACTCTT	-0.0607
CGAAGATC	-0.0883
CGTCCATC	-0.0982
AGTGGTAA	0.00366
ACCTGTCG	-0.18
CGTCGAAG	0.0223
